Measurements taken from PubChem BioAssay AID1347428 (National Center for Advancing Translational Sciences (NCATS), 2020).
Screen size: about 91,000 compounds; about 290 (0.32%) were called active. The inconclusive results got no clear call from the source; some entries with a clear call stand among them for comparison. Calls follow the shape of the dose curve; as a rule, active = well fitted inhibition curve with a large enough effect; inconclusive = small, poorly fitted or top-dose-only effect; inactive = no such curve, though single readings can be large or run the other way. Where the call is inconclusive, the potency comes from a doubtful curve fit.

Molecular target: Single-stranded DNA cytosine deaminase (Homo sapiens) (UniProt Q9GZX7)
Experiment: Primary qHTS assay for inhibitors of Activation Induced Cytidine Deaminase (AID): AID signal; also: nearly all actives have a fitted effect of over 25% in size
Settings: AID deamination FRET fluorescence, UDG-coupled, 4 h; activity change, negative = inhibition: at 115 µM (top of the series)
% is scaled to controls: 0 for no effect and ±100 for the full control effect; potency is read from the fitted curve at half-maximal effect; tags tell the direction and shape of the fitted curve.

Sequence of UniProt Q9GZX7 (Q9GZX7 whole entry, looked up): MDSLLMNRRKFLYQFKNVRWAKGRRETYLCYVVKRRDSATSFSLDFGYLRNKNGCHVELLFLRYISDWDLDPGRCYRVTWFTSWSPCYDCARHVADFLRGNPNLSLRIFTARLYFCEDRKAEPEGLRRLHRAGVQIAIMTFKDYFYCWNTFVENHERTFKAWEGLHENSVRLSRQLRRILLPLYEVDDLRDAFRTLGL

| Compound | activity change, negative = inhibition | Potency |
| --- | --- | --- |
| O=C(C1=C(c2ccccc2)S(=O)(=O)CCO1)N(Cc1cccc(Cl)c1)c1ccccn1 | inactive: -4.61% |  |
| Cc1ccc2oc(=O)n(CCCOc3ccccc3Cl)c2c1 |  | inconclusive: 50.1 µM [inhibitor, partial curve, poor fit] |
| CCOc1ccc(CNCc2c(C(=O)O)c(C)n(Cc3c(F)cccc3Cl)c2C)cc1OC | inactive: 4.03% |  |
| Cc1cc(Nc2cccc(C(F)(F)F)c2)nc2ccc(NC(=O)c3cccc(Cl)c3)cc12 |  | inconclusive: 50.1 µM [inhibitor, partial curve, poor fit] |
| COC(=O)c1ccc(CNC(=O)c2cc(-c3ccc(C)cc3)nc3ccccc23)cc1 | inactive: 20.2% |  |
| COc1ccc(CNC(=O)CCc2c(C)c3cc4c(C)c(C)oc4cc3oc2=O)cc1OC |  | inconclusive: 79.4 µM [inhibitor, partial curve, poor fit] |
| CCc1ccc(NC(=O)CN2C(=O)C3(SCC(=O)N3c3ccc(F)c(F)c3)c3ccccc32)cc1 (stereo unspecified) |  | inconclusive: 10 µM [inhibitor, partial curve, poor fit] |
| O=C(O)COc1c(Cl)cc(/C=C2/NC(=O)NC2=O)cc1Cl | inactive: -5.15% |  |
| COc1cccc(NC(=O)Cn2cc(C(=O)c3ccc(C)cc3)c(=O)c3cc(OC)ccc32)c1 |  | inconclusive: 50.1 µM [inhibitor, partial curve, poor fit] |
| CC1=C(C(=O)OC(C)(C)C)C(c2cccc(Cl)c2)NC(=O)N1 (stereo unspecified) | inactive: 1.97% |  |
| C/C(=N/Nc1c(F)c(F)nc(F)c1F)c1ccc(C)c([N+](=O)[O-])c1 | inactive: 1.37% |  |
| Cn1nnnc1SCCNCc1cc(Br)ccc1OCc1ccccc1Cl |  | inconclusive: 35.5 µM [inhibitor, full curve, poor fit] |
| Cc1cccc2c1-c1sc(C(=O)N(C)c3cccc(Cl)c3)cc1CO2 |  | inconclusive: 25.1 µM [inhibitor, full curve, poor fit] |
| O=C(O)c1csc2c1sc1ccccc12 | inactive: -9.36% |  |
| O=C(c1ccc2c(c1)N(Cc1cccc(F)c1)C(=O)c1ccccc1S2)N1CCCC1 |  | inconclusive: 22.4 µM [inhibitor, full curve, poor fit] |
| CCOc1ccc(C(=O)c2oc3ccccc3c2NC(=O)c2nc(S(C)(=O)=O)ncc2Cl)cc1 | inactive: 2.73% |  |
| CCOc1ccc(NS(=O)(=O)c2ccc3[nH]c4c(c3c2)CCCCC4)cc1 | inactive: 20.4% [at 57.5 µM] |  |
| CCOc1ccc(S(=O)(=O)NCCc2c(C)[nH]c3c(Cl)cccc23)cc1C |  | inconclusive: 79.4 µM [inhibitor, partial curve, poor fit] |
| O=C(c1ccc(F)cc1)N1CCC(c2nc3ccccc3s2)CC1 | inactive: -2.84% [at 57.5 µM] |  |
| CC1CCN(S(=O)(=O)c2ccc3c(c2)N(CC(=O)NCCCN2CCCCC2)C(=O)CS3)CC1 | inactive: 6.73% |  |
| O=C(CCCn1c(=O)c2cccn2c2ccccc21)N1CCN(c2cccc(Cl)c2)CC1 |  | inconclusive: 12.6 µM [inhibitor, partial curve, poor fit] |
| COc1ccc(CC(=O)n2nc(-c3cccc(C)c3)nc2N)cc1 | inactive: -0.827% |  |

| Compound | activity change, negative = inhibition | Potency |
| --- | --- | --- |
| O=C(CSc1cn(CCNC(=O)c2cccc(C(F)(F)F)c2)c2ccccc12)Nc1ccc2c(c1)OCCO2 |  | inconclusive: 35.5 µM [inhibitor, full curve, poor fit] |
| Cc1ccc(/C=C/C(=O)c2c(C)nc3ccc(Br)cc3c2-c2ccccc2)o1 | inactive: 10.8% |  |
| Cc1ccc(Cl)cc1N1CCN(C(=O)CSc2cc(=O)n(C)c3ccccc23)CC1 |  | inconclusive: 15.8 µM [inhibitor, full curve, poor fit] |
| CC(C)(C)c1ccc(OCC(=O)NCC2(N3CCOCC3)CCCCC2)cc1 |  | inconclusive: 31.6 µM [inhibitor, full curve, poor fit] |
| COc1ccc(NC(=O)CCCn2c(=O)c3cccn3c3cccnc32)cc1Cl |  | inconclusive: 100 µM [inhibitor, single point] |
| Cc1cc2nc(COC(=O)c3cccc(NC(=O)c4ccc(C(C)(C)C)cc4)c3C)cc(=O)n2o1 | inactive: 2.99% |  |
| C[n+]1cc2c3c(ccc2c2ccc4cc5c(cc4c21)OCO5)OCO3 |  | inconclusive: 50.1 µM [inhibitor, partial curve, poor fit] |
| COCCN(CCOC)C(=O)COC(=O)c1ccc(C#N)cc1 | inactive: 0.8% |  |
| COc1ccc(OC)c(CNC(=O)c2nn(C)c3c2CS(=O)(=O)c2ccccc2-3)c1 |  | active: 39.8 µM |
| Cc1nc(SCC(=O)Nc2nsc(-c3ccc(C(C)(C)C)cc3)n2)c2c3c(sc2n1)CCCC3 |  | inconclusive: 100 µM [inhibitor, single point] |
| CCCCN(CC)C(=O)c1nn(-c2ccc(OC)cc2)c(=O)c2c1c1ccccc1n2C |  | inconclusive: 44.7 µM [inhibitor, partial curve, poor fit] |
| COc1ccc(OC)c(CNC(=O)c2ccc3c(c2)c(C)c(C)n3C)c1 |  | inconclusive: 39.8 µM [inhibitor, full curve, poor fit] |
| CCCc1cc(=O)[nH]c(Nc2cc(C)cc(C)c2)n1 | inactive: 179% |  |
| CCc1ccc(NC(=O)CSc2nc(-c3cccc(OC)c3)nc3c2Cc2c(CO)cnc(C)c2O3)cc1 |  | inconclusive: 89.1 µM [inhibitor, partial curve, poor fit] |
| CCOc1ccc(NC(=O)CSc2nnc(CNC(=O)C34CC5CC(CC(C5)C3)C4)n2CC)cc1 |  | inconclusive: 28.2 µM [inhibitor, partial curve] |
| C=Cc1ccc(Cn2c(C(=O)O)c(CNC3CCCCC3)c3ccc(OC)cc32)cc1 |  | inconclusive: 100 µM [inhibitor, single point] |
| CCOc1ccc(-c2nc(CSCC(=O)NCCc3ccc(OCC)c(OCC)c3)c(C)o2)cc1 |  | inconclusive: 11.2 µM [inhibitor, full curve, poor fit] |
| COc1ccccc1-c1c(C)nn2c(N3CCN(c4ccccc4)CC3)cc(C)nc12 |  | inconclusive: 35.5 µM [inhibitor, full curve] |
| CCOC(=O)c1ccccc1NC(=O)Cn1c(=O)n(Cc2nc(C)no2)c(=O)c2ccccc21 |  | inconclusive: 50.1 µM [inhibitor, partial curve, poor fit] |
| Nc1ccc(NS(=O)(=O)c2cccc(Cl)c2Cl)cc1[N+](=O)[O-] | inactive: 37.6% |  |
| COC(=O)/C(C#N)=C/c1ccc(-c2c(Cl)cc(Cl)cc2Cl)o1 | inactive: 15% |  |
| CCc1nn(C(C)C(=O)N2CCN(c3ccccc3)CC2)c(=O)c2cc3occc3n12 (stereo unspecified) |  | inconclusive: 50.1 µM [inhibitor, partial curve, poor fit] |

| Compound | activity change, negative = inhibition | Potency |
| --- | --- | --- |
| COc1cc(Nc2ncc3c(n2)CCN(Cc2cccc(C)c2)C3)cc(OC)c1 |  | inconclusive: 39.8 µM [inhibitor, single point] |
| CCc1cnc2c(c1SC(C)CC)c(=O)n(C)c(=O)n2C (stereo unspecified) |  | inconclusive: 50.1 µM [inhibitor, partial curve, poor fit] |
| Cc1cccc(N2CCN(C(=O)C3CCN(c4ncnc5c4nc4n5CCCCC4)CC3)CC2C)c1 (stereo unspecified) |  | inconclusive: 50.1 µM [inhibitor, partial curve, poor fit] |
| S=C(NCc1ccccc1)N/N=C/c1cccc(OCCOc2ccc(Br)cc2)c1 | inactive: -3.5% |  |
| Fc1ccc(CSc2nnc(-c3cccnc3)o2)cc1Br | inactive: -9.44% |  |
| Cc1ccc(S(=O)(=O)Nc2ccc3nc(-c4ccc(F)cc4)oc3c2)cc1 | inactive: 158% |  |
| O=C(CSCc1cnn(-c2ccccc2)c1-n1cccc1)NCc1cccc(Cl)c1 |  | inconclusive: 22.4 µM [inhibitor, full curve, poor fit] |
| Cc1cc(C)c2c(CC(=O)N(Cc3ccc(Cl)cc3)Cc3ccco3)coc2c1 |  | inconclusive: 25.1 µM [inhibitor, partial curve] |
| CC(=O)c1cccc(NC(=O)CN(c2cc(C)cc(C)c2)S(=O)(=O)c2c(C)noc2C)c1 |  | inconclusive: 39.8 µM [inhibitor, partial curve, poor fit] |
| O=C(c1ccc2c(c1)N(Cc1ccccc1)C(=O)c1ccccc1S2(=O)=O)N1CCN(Cc2ccccc2)CC1 |  | inconclusive: 39.8 µM [inhibitor, partial curve, poor fit] |
| CC1(C)CCCC(C)(C#CCN2CCN(C(c3ccccc3)c3ccccc3)CC2)O1 (stereo unspecified) | inactive: 7.39% |  |
| CC(C)CCn1c(/C=C/c2ccccc2)nc2ccccc21 |  | inconclusive: 50.1 µM [inhibitor, partial curve, poor fit] |
| CCc1ccc(OCCn2c(C3CC(=O)N(Cc4ccc(F)cc4)C3)nc3ccccc32)cc1 (stereo unspecified) |  | inconclusive: 22.4 µM [inhibitor, full curve, poor fit] |
| Cc1oc(-c2ccc(Cl)cc2)nc1CN1CCCC(C(=O)NCc2ccccc2)C1 (stereo unspecified) | inactive: -13.5% |  |
| CCN(CC(=O)NC(C)(C)C)C(=O)Cn1c(=O)c2c(ncn2C)n(C)c1=O | inactive: -2.67% |  |
| C/C(=N\O)c1cc2cc(Br)cc(Br)c2oc1=O | inactive: 10% |  |
| CCc1c(C)nc2nncn2c1NCc1ccc(Cl)cc1 | inactive: 0.121% |  |
| Cc1ccc(NC(=O)Cn2nc(Cc3ccncc3)c3ccccc3c2=O)c(Cl)c1 |  | inconclusive: 44.7 µM [inhibitor, partial curve, poor fit] |
| N#Cc1cccnc1NCCCNc1ncccc1C#N | inactive: -1.22% |  |
| C#CCNC(=O)C(CCSC)NC(=O)c1ccc2ccccc2n1 (stereo unspecified) | inactive: -2.85% |  |
| CCS(=O)(=O)c1ncc(N(Cc2ccco2)Cc2ccccc2F)c(C(=O)Nc2cccc(Cl)c2)n1 |  | inconclusive: 25.1 µM [inhibitor, full curve, poor fit] |
| Cc1ccc(N2CCN(C(=O)c3cn(C)c4ccc(S(=O)(=O)N(C)C)cc4c3=O)CC2C)cc1 (stereo unspecified) |  | inconclusive: 39.8 µM [inhibitor, partial curve, poor fit] |
